± gives the standard deviation of the averaged measurements. Some of the results follow.
test system: PfAP2-EXP AP2 domain (GST-tagged); assay: gcPBM binding intensity (ln(normalized median fluorescence intensity)); higher = stronger DNA binding
Outline: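 Binding of GST-tagged P. falciparum DNA-binding domains, expressed in E. coli and used at about 25 μg on average, was carried out for 1 h in 1× PBS containing 1% milk, 0.2 mg/ml BSA, 0.5% salmon testes DNA and 0.03% Triton X-100. The target was an Agilent 4 × 180k array of primer-extended double-stranded 36-bp intergenic genomic probes plus negative controls, read with Alexa488 anti-GST antibody at 488 nm. Binding intensity is the highest Masliner-normalised natural-log median intensity across replicate spots of either probe orientation.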

Sequence	gcPBM binding intensity (ln)
TTAAAATATGATATATGTACATAATTACTAAAAACA [XGTACX_site276]	8.65 ± 0.35
ATTTTATTTTTTTGTGATAATTGATTTATATATTGT [TGCATGCA_negctrl_site563]	8.47 ± 0.4
AATAGAATAATCCTTACACACACACGCGCACGAATA [CACACA_site6365]	8.65 ± 0.49
TATATATTACATTGTTGTACATATATATTATATATA [XGTACX_site60]	8.45 ± 0.29
ATTATTTCTTTGTGATGTACAAATAAACATGTTGGT [XGTACX_site5636]	8.62 ± 0.37
TAAATATATATATATTGTACAAAACAAATGTGAATT [XGTACX_site696]	8.96 ± 0.28
TTAAAAATATTATGTACACACATTTTAGATATTTGT [CACACA_site1846]	8.27 ± 0.24
TAATTAAAATCATATACACACCCATATATATATATA [CACACA_site8524]	10 ± 0.25
TCCTAATATTTGTCAAATTTCAAAATAAATAAAATG [XGTACX_negctrl_site540]	8.3 ± 0.45
CATATTTTTTCTTAAACACACACATATATATATATA [CACACA_site8920]	10.1 ± 0.41
TTAAAAAAAAAAAAAAGTACATAAGTATATATAATA [XGTACX_site4295]	8.43 ± 0.45
TATATATATATGTACACACACACATATAAATAAATA [CACACA_site443]	9.91 ± 0.4
TAAAAGGGGATATATGAACACACAAAAAAAAAATAT [CACACA_site8940]	8.79 ± 0.7
TAAATGTTTCTCAAAAGTACACATGTGATATTTCTT [XGTACX_site2065]	8.39 ± 0.35
ATATTAAGTTTTATTACACACTCTCAATTTTTATTT [CACACA_site4206]	8.68 ± 0.3
ATATATTTCTGTCAAGCACACATAATATTAATATAT [CACACA_site7993]	8.86 ± 0.45
AATGATACTTAGGGGCATGTCTCTGGGGGCATAACC [CACACA_negctrl_site591]	9.54 ± 0.4
TACAAATATAGATGCACACACATATAGGTATATGTG [CACACA_site7439]	8.4 ± 0.45
TATATATAATTATAAGAACACACATATATATATATA [CACACA_site8786]	10.2 ± 0.18
GTTATAAACAAAATAAATATATGAATATATAATAAT [XGTACX_negctrl_site96]	8.35 ± 0.11
CATATTATATTTTCATGTACACATAACATATTTATA [XGTACX_site4787]	8.69 ± 0.19
ATATAGTAAATGTTCACACATACAAATATATATATA [CACACA_site5518]	9.56 ± 0.26
AAGTTTTCTTAAAGCTGTACTTTTTAAAAATAAAAT [XGTACX_site7716]	8.12 ± 0.36

Sequence	gcPBM binding intensity (ln)
CATAAATACAGATATACACACATATATATATATATA [CACACA_site4528]	10.1 ± 0.38
TTTAACATAAATTAAACACACAATAAAATACATTAA [CACACA_site6699]	8.54 ± 0.44
GAGGTACATTAATTAGTGCATTAAAATTTTTATCCT	9.01 ± 0.29
ATAATACATATAGAAGGTACACTATTATTTTCCTGA [XGTACX_site903]	8.43 ± 0.34
ATTATCCATGCATTTACACACACACTAATAAAAATT [CACACA_site9358]	8.95 ± 0.38
ATTCAAAATAATCACAGTACACATGAGATTATCTTT [XGTACX_site2197]	8.31 ± 0.57
TAATTTCTTATGTATTGTACAAATAATATATTATTT [XGTACX_site3066]	8.85 ± 0.46
TTATTGAAAAACATAATATCTAAGAGGGTAATATAT [GTGCAC_negctrl_site599]	8.46 ± 0.45
TTAATATGGAAATGTTGTACATTTCTTGAAGCATTC [XGTACX_site525]	8.26 ± 0.23
ACTTCATAAACATTTTGTACGTATGTATCTTTTTAT [XGTACX_site7012]	8.97 ± 0.38
TCCTTAGAAATATTGATCATAAACTGGAAAGGTATA [XGTACX_negctrl_site354]	8.59 ± 0.37
TGGAAACAAAAACACACACACAAAAAAAAAAAAAAA [CACACA_site3209]	8.12 ± 0.67
TGTATTATTAATATTTGTACGTAATAATAAAAACAT [XGTACX_site3716]	8.62 ± 0.36
GAAATATATAAATTGACACACACATATATACATATA [CACACA_site8323]	8.51 ± 0.28
AAAATATGATATGAAAAATTTGTTATATATACATAA [CACACA_negctrl_site1529]	8.3 ± 0.35
GACATTTGTGAGCTTGAGCCGTCAAACCACTAAATA [CACACA_negctrl_site552]	8.39 ± 0.56
TAATTATAAATTATAGTGCATAAAATTGTAGCATAA	8.53 ± 0.17
TGTATTAATATGGTAATACACACTAATATACTTTTG [CACACA_site1610]	8.24 ± 0.29
AGGTCTGTTTTATATTGTACATAAAAAGTGCACATG [XGTACX_site4529]	9.145 ± 0.007
TGTTATTCGACATATACACACAAATAACAATTTAAA [CACACA_site5076]	8.55 ± 0.53
AACATAATAAAAATGGATATAATTCAAAGTTTGTAA [TGCATGCA_negctrl_site529]	8.32 ± 0.28
TGTAGAATTTCCTGAACATGCAAATAATTTTCCTTA [TGCATGCA_site881]	8.41 ± 0.59

From the supplement of paper PMC11417369
